According to US12419848B2, “Treatment of hyperinflammatory syndrome” (priority 2020, dated 2025):

Tested on: primary progressive multiple sclerosis

Row | Compound | walking distance without an aid (after 3 months) | EDSS (sublingual 4×100 mg/d, after 3 months, before 7.5) | effect on symptoms (prior treatment) (in vivo)
1 | CCN(CC)CC(=O)Nc1c(C)cccc1C [lidocaine] | about 120 meters | 5.5 | –
2 | ocrelizumab: prior treatment of primary progressive multiple sclerosis | – | – | did not improve the symptoms
